In all, about 310,000 compounds went through this assay and about 2,200 (0.71%) showed an effect of 50% or more. The effect is printed as a negative number. The list shows a part of the results.
Target: human ether-à-go-go-related gene (hERG) potassium channel (human, UniProt Q12809)
Assay: primary screen, population patch clamp on CHO cells stably expressing hERG

Sequence of human ether-à-go-go-related gene (hERG) potassium channel (Q12809 whole entry, looked up): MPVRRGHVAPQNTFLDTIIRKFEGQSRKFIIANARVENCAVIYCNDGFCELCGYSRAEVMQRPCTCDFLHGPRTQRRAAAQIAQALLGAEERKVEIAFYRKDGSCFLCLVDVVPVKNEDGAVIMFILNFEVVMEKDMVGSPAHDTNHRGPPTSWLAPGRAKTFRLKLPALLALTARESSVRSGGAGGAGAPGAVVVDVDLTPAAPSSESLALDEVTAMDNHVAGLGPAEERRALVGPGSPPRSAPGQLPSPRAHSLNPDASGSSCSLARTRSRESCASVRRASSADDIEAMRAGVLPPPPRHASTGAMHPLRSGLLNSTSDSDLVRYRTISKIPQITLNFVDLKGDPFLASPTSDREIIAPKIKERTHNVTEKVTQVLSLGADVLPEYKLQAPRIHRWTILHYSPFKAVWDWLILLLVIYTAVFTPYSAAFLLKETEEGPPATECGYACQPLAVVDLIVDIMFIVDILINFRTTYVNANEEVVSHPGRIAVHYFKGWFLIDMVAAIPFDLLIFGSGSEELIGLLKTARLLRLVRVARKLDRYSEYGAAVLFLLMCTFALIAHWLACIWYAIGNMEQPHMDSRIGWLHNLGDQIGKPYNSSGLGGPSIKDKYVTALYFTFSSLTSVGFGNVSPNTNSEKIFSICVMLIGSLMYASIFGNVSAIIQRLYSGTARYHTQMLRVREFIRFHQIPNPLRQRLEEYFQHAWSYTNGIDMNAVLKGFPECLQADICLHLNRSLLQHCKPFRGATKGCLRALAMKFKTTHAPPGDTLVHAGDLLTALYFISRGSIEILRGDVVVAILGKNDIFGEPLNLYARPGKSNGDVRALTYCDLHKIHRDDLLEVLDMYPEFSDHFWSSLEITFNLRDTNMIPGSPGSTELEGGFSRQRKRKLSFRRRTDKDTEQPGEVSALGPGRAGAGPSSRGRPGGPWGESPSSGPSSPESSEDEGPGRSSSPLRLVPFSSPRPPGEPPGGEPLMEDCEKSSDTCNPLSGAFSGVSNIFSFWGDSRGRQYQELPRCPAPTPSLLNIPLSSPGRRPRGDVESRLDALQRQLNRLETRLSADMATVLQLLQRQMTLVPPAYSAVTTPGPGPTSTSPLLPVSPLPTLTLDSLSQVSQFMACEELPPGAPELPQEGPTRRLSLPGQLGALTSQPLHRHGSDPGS

Row | Compound | hERG current change (%, negative = inhibition) at 1uM [%]
1 | CCCC[N+](CC#Cc1ccccc1)(CCCC)CCCS(=O)(=O)[O-] | 18.2
2 | O=C(COC(=O)[C@@H]1CCCN1S(=O)(=O)c1ccccc1F)c1ccccc1 | 4.79
3 | CCOc1ccc(OCCOC(=O)C2CCN(S(=O)(=O)c3ccc(C)c(C)c3)CC2)cc1 | 6.68
4 | COc1ccc2c(c1)Cc1sc(NC(=O)c3cccnc3)nc1-2 | 4.17
5 | COc1cc([N+](=O)[O-])ccc1NC(=O)COC(=O)c1n[nH]c2ccccc12 | 12.1
6 | CC1CCCC(NC(=O)c2ccc3snnc3c2)C1C (stereo not shown) | 16.7
7 | COC(=O)CNC(c1ccccc1Cl)c1cc(Br)ccc1NS(=O)(=O)c1ccc(C)cc1 (stereo not shown) | 5.02
8 | O=C(COC(=O)c1cccs1)Nc1ccccc1 | 11.1
9 | O=C(NCCc1ccccc1)c1noc2c1CCCCC2 | 11.7
10 | COCCCNC(=S)NNC(=O)c1ccc(C(C)(C)C)cc1 | 7.5
11 | Cc1cc(C(=O)N2CCCCCC2)cs1 | 14.9
12 | Cc1cccc(NC(=O)C(C)N2C(=O)C3C4CC(C(Br)C4Br)C3C2=O)c1 (stereo not shown) | 12
13 | CSCCC(NC(N)=O)C(=O)Nc1cccc(C#N)c1 (stereo not shown) | 5.2
14 | O=[N+]([O-])c1cccc(-c2nnc(SCc3cccnc3)o2)c1 | -25
15 | COc1ccc(C2=CC(=O)C[C@H](c3ccc(F)cc3)C2)cc1F | 0.56
16 | COc1cc(/C=C/C(=O)OCC(=O)NC(=O)NC(C)(C)C)ccc1OCC#N | 5.93
17 | Cc1ccc(SCC(=O)NCCC2=CCCCC2)cc1 | 7.24
18 | COC(=O)c1ccccc1NC(=O)CN1C(=O)C2CCCN2c2ncc(Cl)cc21 (stereo not shown) | 2.06
19 | Cc1cc(C)c2sc(N(CCCN(C)C)C(=O)c3ccc(S(=O)(=O)N(C)Cc4ccccc4)cc3)nc2c1.Cl | 1.75
20 | O=C1N/C(=C/c2cccs2)C(=O)N1Cc1ccc(F)cc1 | 11.2
21 | CCC(C)NCCOc1cccc(Br)c1.O=C(O)C(=O)O (stereo not shown) | 5.61
22 | O=C1/C(=C\c2ccc(O)cc2)SC(=S)N1c1cccnc1 | 15.9
23 | Cc1ccc(S(=O)(=O)N2CCN(C(=O)Cn3nc(C)c([N+](=O)[O-])c3C)CC2)c(C)c1 | 3.75
24 | Cc1c(-c2ccc(Br)cc2)[n+](=O)c2c(n1[O-])CCCCC2 | 10.8
25 | O=C(COc1cc(Cl)c(Cl)cc1Cl)NC(=O)NC1CCCC1 | 7

Reference: article PMC4336329 (PLoS ONE, 2015)
